Results: PubChem BioAssay (Tox21)
The inconclusive results got no clear call from the source; some entries with a clear call stand among them for comparison. No potency is given beside an inconclusive call; the fits are too rough. Activity calls are given as the source filed them. Calls come from the whole dose curve; as a rule, active = well fitted cell-killing curve with a large enough effect in the repeat runs; inconclusive = weak or mixed curves, or effect the other way; inactive = flat fitted curve, though single readings scatter.

test: qHTS assay to identify small molecule agonists of the estrogen receptor beta (ER-beta) signaling pathway - cell viability counter screen (AID 1259380); conditions: ER-beta-bla HEK293T viability, CellTiter-Glo luminescence, 16 h; series mostly up to 92.4 µM; activity change, negative = cytotoxicity: at the top concentration; note: nearly all actives have a fitted effect of over 30% in size
From the text: National Center for Advancing Translational Sciences [NCATS]
NIH Chemical Genomics Center [NCGC]
U.S. Environmental Protection Agency [EPA]
National Institutes of Environmental Health Sciences [NIEHS]
National Toxicology Program [NTP]
U.S. Food and Drug Administration [FDA]
Estrogen receptor (ER), a nuclear hormone receptor, plays an important role in development, metabolic homeostasis and reproduction. Two subtypes of ER, ER-alpha and ER-beta, have similar expression patterns with some uniqueness in both types. Endocrine disrupting chemicals (EDCs) and their interactions with steroid hormone receptors like ER causes disruption of normal endocrine function. To identify the compounds that activate ER signaling, an ER beta-UAS-bla GripTite cell line (Life Technologies, Madison, WI, USA) containing a beta-lactamase reporter gene under the control of an UAS response element was used to screen Tox21 10K compound library. The cytotoxicity of the Tox21 compound library against the ER-beta-bla cell line was tested in parallel by measuring the cell viability using CellTiter-Glo assay in the same wells.
Tox21 Assay Protocol Summary:
ER-beta-UAS-bla HEK293T cells were dispensed at 2,000 cells/5 uL of assay medium containing 2% charcoal stripped FBS per well into black wall/clear-bottom 1536-well plates using a Multidrop Combi (ThermoFisher Scientific, Waltham, MA) dispenser. After the assay plates were incubated at a 37C and 5% CO2 for 6 hr, 23 nL of compounds dissolved in DMSO, positive controls or DMSO only was transferred to the assay plate by a Pintool station (Kalypsys, San Diego, CA). The plates were incubated at 37C and 5% CO2 for 16 hr. Then 1 uL of LiveBLAzerTM B/G FRET substrate was added using a BioRAPTR FRD (Flying Reagent Dispenser, Aurora Discovery, San Diego, CA) and then the plates were incubated at room temperature for 2 hours, and fluorescence intensity was measured by an Envision plate reader (PerkinElmer, Shelton, CT). For cell viability readout that measures cytotoxicity, 4 uL/well of CellTiter-Glo reagent was added into the assay plates using a FRD. After 30 min incubation at room temperature, the luminescence intensity in the plates was measured using a ViewLux (PerkinElmer) plate reader.
% is set by controls: 0 for no effect and ±100 for the full control effect; potency is the fitted concentration of half-maximal effect; tags give direction and shape of the fitted curve.

| SMILES | activity change, negative = cytotoxicity | Potency |
| --- | --- | --- |
| CCCC(=O)OCc1ccccc1 | inactive: 11.3% | – |
| CCNC(=O)N1CCN(CCCC(c2ccc(F)cc2)c2ccc(F)cc2)CC1 | – | inconclusive [cytotoxic, single point] |
| CCCCNc1ccc(C(=O)OCCN(CC)CC)cc1 | – | inconclusive [cytotoxic, partial curve] |
| CC(C)(C)[C@@H](O)[C@@H](Cc1ccc(Cl)cc1)n1cncn1 | – | inconclusive [cytotoxic, partial curve, poor fit] |
| CCn1ccnc1CC1COc2ccccc2O1 (stereo not given) | inactive: -3.34% [at 42.5 µM] | – |
| CCCCCCCCCCCCOCCOS(=O)(=O)O | – | active: 48.6 µM |
| CCOC(=O)C1=NN(c2ccc(Cl)cc2Cl)C(C)(C(=O)OCC)C1 (stereo not given) | – | inconclusive [cytotoxic, partial curve, poor fit] |
| CC(COCCO)OCCO (stereo not given) | inactive: 3.22% | – |
| O=C(NN1CCCC1)NS(=O)(=O)c1ccc(Cl)cc1 | inactive: -1.24% [at 42.5 µM] | – |
| CN(C)CCOC1=Cc2ccccc2Sc2ccc(Cl)cc21 | – | active: 26.6 µM |
| OCc1c2ccccc2cc2ccccc12 | – | inconclusive [cytotoxic, single point] |
| CCCCCCOC(=O)CCC | inactive: -6.69% | – |
| CCC(O)OCCCOC (stereo not given) | – | inactive |
| CCCCCCCCCC(C)C=O (stereo not given) | – | active: 48.6 µM |
| CC(C)=CCCC(C)C=O (stereo not given) | – | inconclusive [rising, single point] |
| O=S(=O)(O)c1cc(I)c(O)c2ncccc12 | inactive: 5.05% [at 42.5 µM] | – |
| C=C(C)C1CC=C(C)C(O)C1 (stereo not given) | inactive: 1.22% | – |
| O=C(NCC1CN(c2ccc(N3CCOCC3=O)cc2)C(=O)O1)c1ccc(Cl)s1 (stereo not given) | – | inconclusive [cytotoxic, partial curve] |
| COc1cccc2sc(N)nc12 | – | inconclusive [cytotoxic, single point] |
| CCCCCCC(=O)OCC | – | inconclusive [rising, single point] |

| SMILES | activity change, negative = cytotoxicity | Potency |
| --- | --- | --- |
| O=[N+]([O-])c1ccc(CCO)cc1 | inactive: 3.95% | – |
| CCCCC(=O)OCC(=O)[C@H]1[C@H](C)C[C@H]2[C@@H]3C[C@H](F)C4=CC(=O)C=C[C@]4(C)[C@@]3(F)[C@@H](O)C[C@@]21C | – | inconclusive [cytotoxic, single point] |
| CCCC(=O)Nc1ccc(OCC(O)CNC(C)C)c(C(C)=O)c1 (stereo not given) | inactive: 0.757% [at 42.5 µM] | – |
| OCCSc1ccccc1 | – | active: 19.3 µM |
| CN(C)CCCOc1nn(Cc2ccccc2)c2ccccc12 | – | inconclusive [rising, single point] |
| O=S(=O)(O)c1ccc2ccccc2c1 | – | inconclusive [cytotoxic, full curve] |
| OCC(O)c1ccccc1 (stereo not given) | – | inconclusive [cytotoxic, single point] |
| CC(C)(C)c1ccc(OCC2CO2)cc1 (stereo not given) | – | inconclusive [cytotoxic, partial curve] |
| OC[C@H](Cc1cccc(O)c1)[C@H](CO)Cc1cccc(O)c1 | – | inconclusive [cytotoxic, partial curve] |
| Cc1cc2nc(N)sc2cc1C | – | active: 30.9 µM |
| C/C=C1/CC2C=CC1C2 (stereo not given) | – | inactive |
| Cc1ccc(Nc2nccc(N(C)c3ccc4c(C)n(C)nc4c3)n2)cc1S(N)(=O)=O | – | inconclusive [cytotoxic, single point] |
| CCCCCOC(=O)c1ccc(O)cc1 | – | active: 55.1 µM |
| CCCCCCCCCCCC(=O)N(C)CC(=O)O | – | inconclusive [cytotoxic, partial curve] |
| C#CCN[C@@H]1CCc2ccccc21 | inactive: -2.23% [at 42.5 µM] | – |
| NCCCOCCOCCOCCCN | – | active: 15.4 µM |
| O=C(Nc1ccc([N+](=O)[O-])cc1)Nc1ccc([N+](=O)[O-])cc1 | – | inconclusive [cytotoxic, full curve] |
| C/C=C/C=C/CCCCCCCO | – | inconclusive [cytotoxic, full curve] |
| CCCCCC(=O)O | – | inactive |
| CNC(=O)Nc1ccc(Cl)c(Cl)c1 | – | inconclusive [cytotoxic, partial curve] |
